The text below walks through data of paper PMC6172828.

Sequences of proteins named here, by UniProt entry; tags and fusion partners are left off.
UniProt Q9Z148: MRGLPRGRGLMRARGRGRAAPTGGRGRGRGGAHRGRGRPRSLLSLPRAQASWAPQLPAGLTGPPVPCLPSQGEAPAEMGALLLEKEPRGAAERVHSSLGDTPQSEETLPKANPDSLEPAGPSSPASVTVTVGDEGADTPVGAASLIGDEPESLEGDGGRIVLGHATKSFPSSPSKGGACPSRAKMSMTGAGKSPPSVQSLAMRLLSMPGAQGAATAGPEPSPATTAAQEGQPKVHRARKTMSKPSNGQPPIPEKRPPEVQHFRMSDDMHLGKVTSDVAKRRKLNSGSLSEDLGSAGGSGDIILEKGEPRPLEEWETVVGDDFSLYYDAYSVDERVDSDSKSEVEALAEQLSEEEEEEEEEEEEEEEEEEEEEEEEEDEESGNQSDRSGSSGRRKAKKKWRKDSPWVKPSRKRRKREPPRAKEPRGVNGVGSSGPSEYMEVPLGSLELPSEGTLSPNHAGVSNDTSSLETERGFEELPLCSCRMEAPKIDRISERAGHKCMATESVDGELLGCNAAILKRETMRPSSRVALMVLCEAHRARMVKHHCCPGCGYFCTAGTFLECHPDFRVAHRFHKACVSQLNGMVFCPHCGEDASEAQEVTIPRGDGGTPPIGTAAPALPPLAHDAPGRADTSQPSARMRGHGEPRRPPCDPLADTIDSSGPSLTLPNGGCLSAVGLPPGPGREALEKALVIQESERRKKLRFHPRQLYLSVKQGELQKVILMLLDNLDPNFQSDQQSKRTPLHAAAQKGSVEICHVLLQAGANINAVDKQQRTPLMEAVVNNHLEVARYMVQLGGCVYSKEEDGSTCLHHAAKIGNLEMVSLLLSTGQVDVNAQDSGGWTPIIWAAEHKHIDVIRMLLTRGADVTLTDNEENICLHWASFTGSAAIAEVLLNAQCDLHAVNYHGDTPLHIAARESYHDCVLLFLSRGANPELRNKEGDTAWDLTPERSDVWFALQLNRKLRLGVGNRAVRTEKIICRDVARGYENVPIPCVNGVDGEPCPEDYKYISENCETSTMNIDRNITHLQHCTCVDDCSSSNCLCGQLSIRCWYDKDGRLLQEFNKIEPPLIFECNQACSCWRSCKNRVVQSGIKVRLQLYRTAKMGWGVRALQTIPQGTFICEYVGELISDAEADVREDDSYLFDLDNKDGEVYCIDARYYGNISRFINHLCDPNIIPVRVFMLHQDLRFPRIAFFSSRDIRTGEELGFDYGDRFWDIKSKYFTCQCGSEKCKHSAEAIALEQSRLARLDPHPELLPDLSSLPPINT

Assay [1] has as its target T1, 3xFLAG-tagged ATF7IP WT (expressed in HEK293T cells) (mouse) (UniProt Q7TT18).
T1 sequence: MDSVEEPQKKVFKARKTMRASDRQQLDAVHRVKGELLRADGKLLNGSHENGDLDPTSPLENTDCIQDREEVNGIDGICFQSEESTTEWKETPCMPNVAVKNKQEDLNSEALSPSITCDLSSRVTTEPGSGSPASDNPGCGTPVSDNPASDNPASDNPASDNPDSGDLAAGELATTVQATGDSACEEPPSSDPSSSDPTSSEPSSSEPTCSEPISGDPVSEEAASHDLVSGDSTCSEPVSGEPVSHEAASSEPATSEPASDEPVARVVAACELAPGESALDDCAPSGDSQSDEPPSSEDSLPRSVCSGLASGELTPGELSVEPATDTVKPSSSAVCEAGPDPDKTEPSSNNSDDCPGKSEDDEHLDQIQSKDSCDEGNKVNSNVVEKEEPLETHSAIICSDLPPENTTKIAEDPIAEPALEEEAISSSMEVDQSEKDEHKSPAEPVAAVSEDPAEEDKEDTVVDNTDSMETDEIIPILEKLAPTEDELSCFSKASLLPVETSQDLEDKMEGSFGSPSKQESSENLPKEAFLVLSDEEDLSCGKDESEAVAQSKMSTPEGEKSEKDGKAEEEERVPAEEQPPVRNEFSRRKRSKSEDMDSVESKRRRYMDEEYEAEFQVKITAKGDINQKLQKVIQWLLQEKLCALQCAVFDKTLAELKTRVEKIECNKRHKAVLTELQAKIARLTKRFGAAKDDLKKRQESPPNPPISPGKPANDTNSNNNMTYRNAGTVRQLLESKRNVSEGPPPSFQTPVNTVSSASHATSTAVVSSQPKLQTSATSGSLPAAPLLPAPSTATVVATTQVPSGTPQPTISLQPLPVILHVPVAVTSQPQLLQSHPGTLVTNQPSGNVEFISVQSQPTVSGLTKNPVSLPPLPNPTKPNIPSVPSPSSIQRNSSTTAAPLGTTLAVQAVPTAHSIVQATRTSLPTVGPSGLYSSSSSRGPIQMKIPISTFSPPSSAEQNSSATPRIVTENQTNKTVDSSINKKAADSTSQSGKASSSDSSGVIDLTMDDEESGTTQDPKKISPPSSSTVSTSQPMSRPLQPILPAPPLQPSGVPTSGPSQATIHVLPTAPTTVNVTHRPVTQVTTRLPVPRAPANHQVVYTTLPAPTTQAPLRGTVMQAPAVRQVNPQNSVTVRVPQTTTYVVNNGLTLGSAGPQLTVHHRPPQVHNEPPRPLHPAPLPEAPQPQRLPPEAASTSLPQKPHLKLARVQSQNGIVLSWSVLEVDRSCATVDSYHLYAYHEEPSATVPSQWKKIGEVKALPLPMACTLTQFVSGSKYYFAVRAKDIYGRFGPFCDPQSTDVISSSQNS
Kind of assay: co-IP; HEK293T cells co-transfected with G9a or GLP plus 3xFLAG-ATF7IP WT, K16R or Δ(1–16); anti-FLAG M2 agarose; western blot.

For assay [2], the target named is T2, 3xFLAG-ATF7IP Δ(1–16) mutant (stably expressed in Atf7ip KO mESCs) (mouse) (UniProt Q7TT18).
T2 sequence: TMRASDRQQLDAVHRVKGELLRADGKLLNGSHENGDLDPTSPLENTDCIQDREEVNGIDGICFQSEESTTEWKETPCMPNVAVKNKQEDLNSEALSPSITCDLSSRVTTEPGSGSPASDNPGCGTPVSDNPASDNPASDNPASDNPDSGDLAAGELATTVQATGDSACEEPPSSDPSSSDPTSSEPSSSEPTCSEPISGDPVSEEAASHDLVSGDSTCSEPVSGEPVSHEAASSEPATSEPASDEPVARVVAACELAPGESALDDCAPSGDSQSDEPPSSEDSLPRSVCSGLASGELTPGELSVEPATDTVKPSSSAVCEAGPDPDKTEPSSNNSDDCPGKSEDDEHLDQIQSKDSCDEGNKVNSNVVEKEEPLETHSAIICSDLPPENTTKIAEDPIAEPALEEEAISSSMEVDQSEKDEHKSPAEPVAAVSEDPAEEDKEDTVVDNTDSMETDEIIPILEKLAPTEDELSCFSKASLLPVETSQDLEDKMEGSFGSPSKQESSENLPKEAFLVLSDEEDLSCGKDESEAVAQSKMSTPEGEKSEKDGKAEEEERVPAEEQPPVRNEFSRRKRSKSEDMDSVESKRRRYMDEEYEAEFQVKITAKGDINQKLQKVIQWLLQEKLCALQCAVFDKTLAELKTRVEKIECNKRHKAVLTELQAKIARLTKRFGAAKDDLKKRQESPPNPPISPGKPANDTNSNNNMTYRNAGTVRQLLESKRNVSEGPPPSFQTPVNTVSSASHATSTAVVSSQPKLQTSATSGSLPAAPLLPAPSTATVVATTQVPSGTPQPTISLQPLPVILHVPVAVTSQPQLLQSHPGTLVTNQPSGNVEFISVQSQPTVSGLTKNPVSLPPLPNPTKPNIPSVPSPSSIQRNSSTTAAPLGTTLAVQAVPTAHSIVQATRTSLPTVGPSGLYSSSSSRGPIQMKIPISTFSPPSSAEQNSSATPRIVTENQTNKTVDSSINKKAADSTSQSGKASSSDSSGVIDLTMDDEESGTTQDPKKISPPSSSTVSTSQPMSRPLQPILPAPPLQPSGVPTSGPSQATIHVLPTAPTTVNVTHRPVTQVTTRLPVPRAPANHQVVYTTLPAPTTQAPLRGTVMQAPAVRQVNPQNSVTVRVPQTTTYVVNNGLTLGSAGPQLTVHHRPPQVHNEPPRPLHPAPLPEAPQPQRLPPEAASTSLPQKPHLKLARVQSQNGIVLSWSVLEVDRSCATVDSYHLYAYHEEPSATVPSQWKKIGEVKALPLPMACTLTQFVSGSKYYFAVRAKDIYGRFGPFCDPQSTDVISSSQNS
Briefly: co-IP; Atf7ip KO mESCs rescued with 3xFLAG-ATF7IP WT, K16R or Δ(1–16); anti-FLAG M2 beads; endogenous partners detected by western blot.

Results are given in words; binding and its absence hold for the method and conditions named. In cells and extracts the contact can be indirect. Some results given as binding are weak or reduced against the parent protein; the word gives no strength. Sequences can lack the tags named with a protein.

Turning to “G9a (co-transfected into HEK293T cells) (from UniProt Q9Z148 1-1263) (enzyme)”, the binding entry in assay [1] was “binds”.

B1: M-phase phosphoprotein 8 (MPP8), endogenous in mESCs (protein, UniProt Q3TYA6 1-858)
chain: MAAAAEEGMSAAALVMSVPDSIGRSPESEGVGAGDEEKDAATKGTVAVGDSEEDGEDVFEVERILDMKCEGGKNLYKVRWKGYTSEDDTWEPEVHLEDCKEVLLEFRKKLAENKAKAVRKDIQRLSLNNDIFEADSDSDQQSDTKEDISPRKKKKKIKCKEETSPEDLRKKRTKMGKLKDKFKTELESTSEIIGFDVKTKKRIWEVKEELKDSKKPKKDEIKETKELKKANKRAEVRDLKIKIREDVKENRKTKKERYIESPLESESPNDSLILEDDSEDFISDNREENQNVRSVRDKTAQETVQEGIFEKHLDDLISIEEDAGTRVRRKKTKPRKFEEPKEIKKLESTNAFLERRAIPKKQRNQDKGISNLELNKLPSPVFAQTLKSSRLSGEEKSLKSPDLAEEEKEKKNEPKGKYQKRYDLDKEEKARKEPKVLKSFKEIRNAFDLFKKTTEEKNDVLENNSKREEISLDSKIMNDNKTKDKCSLKEKRNTRDETDTWAYIAAEGDQEVSDSVCQTDETSDGRQPVLSLGMDLQLEWMKLEDFQKHLDGEDEPFITTNRIPNNLLRDAVKNGDYIAVKVALNSNEEYNLDQEDSTGMTLVMLAAAGGQDDLLRLLITKGAKVNGRQKNGTTALIHAAEKNFLTTVAILLEAGAFVNVQQSNGETALMKACKRGNSDIVRLVIECGADCNILSKHQNSALYFAKQCNNVLVYELLKSHLETLSRVAEETIRDYFESRLALLEPVFPIACHRLCEGPDFSTDFNYMPPQNMPEGSGVLLFIFHANFLGKDVIARLCGPCSVQAVVLNDKFQLPVFLDSHFVYSFSPVAGPNKLFIRLTEAPFAKVKLLIGAYRVQLQ
In the case of B1, the binding result in assay [2] is listed as “no binding”.
